Our source for the enrichment ratio values is a collection of fitness landscapes (doi:10.1126/science.1257360).

To fix the notation:
B1: PhoQ; a variant is named by its letters at X, in order, P23837 (parent)
chain: MKKLLRLFFPLSLRVRFLLATAAVVLVLSLAYGMVALIGYSVSFDKTTFRLLRGESNLFYTLAKWENNKLHVELPENIDKQSPTMTLIYDENGQLLWAQRDVPWLMKMIQPDWLKSNGFHEIEADVNDTSLLLSGDHSIQQQLQEVREDDDDAEMTHSVAVNVYPATSRMPKLTIVVVDTIPVELKSSYMVWSWFIYVLSANLLLVIPLLWVAAWWSLRPIEALAKEVRELEEHNRELLNPATTRELTSLVRNLNRLLKSERERYDKYRTTLTDLTHSLKTPLXXLQXXLRSLRSEKMSVSDAEPVMLEQISRISQQIGYYLHRASMRGGTLLSRELHPVAPLLDNLTSALNKVYQRKGVNISLDISPEISFVGEQNDFVEVMGNVLDNACKYCLEFVEISARQTDEHLYIVVEDDGPGIPLSKREVIFDRGQRVDTLRPGQGVGLAVAREITEQYEGKIVAGESMLGGARMEVIFGRQHSAPKDE

The other results are listed elsewhere or left out. Where only a bound is given, the exact number is not on record here.

The variants in the assay derive from B1. The experiment in a line: enrichment ratio after two sorts for PhoP signalling (ratio (wild type AVST 3.29)); higher = more functional. The conditions noted are these: with PhoP (E. coli).
WHFW: the enrichment ratio was at most 0.25. In the case of QSAG it was at most 0.25; in that of EERK, at most 0.25. In the case of RTTQ it was at most 0.25. In the case of VDED it was at most 0.25. As to HDDN, the enrichment ratio is at most 0.25. With GNDS the figure was at most 0.25; with QIFN, at most 0.25. In the case of GCFW it was at most 0.25; in that of NMDE, at most 0.25. With LMAR the figure was at most 0.25. On to GKWN, for which the enrichment ratio was at most 0.25.

Regarding GLYT, the enrichment ratio is at most 0.25. With DRDP the figure was at most 0.25.

For IIDS, the enrichment ratio was at most 0.25. Regarding WQRY, the enrichment ratio was at most 0.25. In the case of QSQQ it was at most 0.25; in that of LVDA, at most 0.25. In the case of VQIC it was at most 0.25; in that of NKSW, at most 0.25; in that of AGSQ, 12.9. In the case of QCYV it was at most 0.25. Consider YNLL, for which the enrichment ratio was found to be 10.8. With NRIK the figure was at most 0.25; with KRHP, at most 0.25; with NDRG, at most 0.25.

For the variant CVLC, the enrichment ratio is at most 0.25. In the case of PQPV it was at most 0.25. With LWFV the figure was at most 0.25; with GCHR, at most 0.25; with WFVP, at most 0.25. With PDCR the figure was at most 0.25; with KDKT, at most 0.25. In the case of MSWY, the enrichment ratio was determined as 5.91. With QDGG, the enrichment ratio was at most 0.25. Turning to ESCP, the enrichment ratio was at most 0.25. In the case of SKNW it was at most 0.25.

In the case of TLYN, the enrichment ratio stood at 0.821.

For the variant LGVN, the enrichment ratio is at most 0.25. With FHPV the figure was at most 0.25; with VWEH, at most 0.25; with PSAH, at most 0.25. Turning to AIQT, the enrichment ratio was at most 0.25. In the case of DMVS it was at most 0.25; in that of KIYI, at most 0.25; in that of EISM, at most 0.25. With AVCP the figure was at most 0.25. In the case of QTGH it was at most 0.25; in that of GGDL, at most 0.25. SDSR: the enrichment ratio is at most 0.25. With MCWI the figure was 18.3; with ANCH, 4.77. In the case of DELM it was at most 0.25. With IYCC the figure was at most 0.25; with VAHK, at most 0.25; with DRTA, at most 0.25. Regarding KMCG, the enrichment ratio was at most 0.25. In the case of MDKY it was at most 0.25; in that of PKVQ, at most 0.25; in that of RFMN, at most 0.25. With YKSH the figure was at most 0.25; with YVCV, 0.279. With HYKA the figure was at most 0.25. Turning to DGNM, the enrichment ratio was at most 0.25. With PTGI the figure was at most 0.25.

In the case of MMEP, the enrichment ratio was at most 0.25. As to PSLM, the enrichment ratio amounted to 0.728. In the case of YRIG it was at most 0.25; in that of PTHK, at most 0.25. With CLFA the figure was at most 0.25; with VKDE, at most 0.25.

As for IEAN, the enrichment ratio was at most 0.25. Consider TVKF, for which the enrichment ratio is at most 0.25. With IGWH the figure was 3.3. With MWFV the figure was at most 0.25; with TDHM, at most 0.25. WCPP: the enrichment ratio is at most 0.25. With EIYW the figure was at most 0.25; with PMHP, at most 0.25.

As for ILFD, the enrichment ratio was at most 0.25. With HLHW the figure was at most 0.25; with SEKI, at most 0.25. In the case of KAPR, the enrichment ratio is at most 0.25. With AFKL the figure was at most 0.25; with SVQR, 1.37. In the case of NLPM it was at most 0.25; in that of GVVN, at most 0.25. In the case of FGYE it was at most 0.25; in that of GSCN, at most 0.25; in that of VCIF, at most 0.25. Turning to LLAV, the enrichment ratio is at most 0.25.

For QNPA, the enrichment ratio was at most 0.25. With THDK the figure was at most 0.25; with PWGT, at most 0.25; with LWEY, at most 0.25. In the case of VAYN it was at most 0.25; in that of TTYQ, 11.4. With SKNQ the figure was at most 0.25; with PDLF, at most 0.25. With DHCC, the enrichment ratio was at most 0.25. In the case of RHPL it was at most 0.25; in that of EKSA, at most 0.25; in that of FQHC, at most 0.25. On to MESK, for which the enrichment ratio is at most 0.25. Turning to LFPH, the enrichment ratio is at most 0.25. On to SHPK, for which the enrichment ratio was at most 0.25. Consider HWYM, for which the enrichment ratio was at most 0.25. In the case of MQSL it was at most 0.25; in that of VKSV, at most 0.25; in that of LTSH, at most 0.25. In the case of FGHH it was at most 0.25; in that of IVMF, at most 0.25. With VCEN the figure was at most 0.25; with GHFC, at most 0.25; with KDGE, at most 0.25.

As for TYRT, the enrichment ratio is at most 0.25. For FCEY, the enrichment ratio was at most 0.25. In the case of YTNQ, the enrichment ratio is at most 0.25. In the case of NILM it was at most 0.25; in that of MCWY, 9.91; in that of DDYL, at most 0.25. With AHTF the figure was at most 0.25; with ETRW, at most 0.25; with MNRA, at most 0.25. With DIWQ the figure was at most 0.25; with LPWI, at most 0.25. Turning to VECP, the enrichment ratio is at most 0.25. In the case of RTAN it was at most 0.25; in that of STHG, at most 0.25; in that of LKHE, at most 0.25. In the case of TLRL it was at most 0.25; in that of KKTF, at most 0.25.

For the variant YQKC, the enrichment ratio was at most 0.25.

For the variant FICL, the enrichment ratio is 11. With QRIK the figure was at most 0.25; with FFCR, at most 0.25; with DQSL, at most 0.25. In the case of CQLT it was at most 0.25; in that of LVLQ, at most 0.25. With YGNE the figure was at most 0.25; with VLTQ, at most 0.25; with FICD, at most 0.25.

Consider NGRF, for which the enrichment ratio was at most 0.25.

In the case of WNSV, the enrichment ratio was at most 0.25. With RNMM the figure was at most 0.25; with WQPE, at most 0.25; with PQTY, at most 0.25.

Consider GTPA, for which the enrichment ratio was at most 0.25. Regarding IIVI, the enrichment ratio was at most 0.25. As to MTEF, the enrichment ratio was at most 0.25.

With DRIV, the enrichment ratio was at most 0.25. In the case of SVVT it was 0.568. In the case of EMID it was at most 0.25.
